According to article PMC5147771, “High-Resolution Genetics Identifies the Lipid Transfer Protein Sec14p as Target for Antifungal Ergolines” (PLoS Genetics, 2016):
Read-outs that look alike come from different tables or passages of the source.

Tested on: wild type yeast carrying plasmid SEC14 variants
Test: Growth inhibition titration of yeast re-transformed with plasmids coding for SEC14 variants
Details: Saccharomyces cerevisiae, 18 h

`COC(=O)C1CC2c3ccc([N+](=O)[O-])c4c3C(CC2N(C)C1)CN4C(=O)OCC(Cl)(Cl)Cl` (centres unmarked) [NGx04] showed an IC50 (read-out: IC50, SEC14 Y111H) of 236 µM and an IC50 (read-out: IC50, SEC14 Y151H) of 260 µM.
